The list shows a part of the results.
Tested on: PfHDP1 homeodomain (GST-tagged)
Assay: gcPBM binding intensity (ln(normalized median fluorescence intensity)); higher = stronger DNA binding
Outline: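 GST-tagged P. falciparum DNA-binding domains, expressed in E. coli (about 25 μg on average), were applied for 1 h to an Agilent 4 × 180k array of primer-extended double-stranded 36-bp intergenic genomic probes plus negative controls. The binding buffer was 1× PBS with 1% milk, 0.2 mg/ml BSA, 0.5% salmon testes DNA and 0.03% Triton X-100. Bound protein was detected with Alexa488 anti-GST antibody and scanned at 488 nm. Binding intensity is the highest Masliner-normalised natural-log median intensity across replicate spots of either probe orientation.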

In order of rising “gcPBM binding intensity (ln)” value:
1. TTTTCTAAAATGAATTGTACTTGATTATTTAAAAAA [XGTACX_site6097]  5.72
2. ATACTAAAAAGTATCTGTACTTATTTTAAAAATAAA [XGTACX_site4116]  6.05
3. TAAAAAATGAAAAAGCGTACATGTTTTCTTATATTA [XGTACX_site1722]  6.11
4. ATATGAAATAATAATAGTACATAAAATAATTTTACT [XGTACX_site6964]  6.13
5. TTATTTATTTATAATAGTACAATTTAATGATCTTCT [XGTACX_site4831]  6.13
6. ATAGAAATATATATATGTACATATAGATAAATCTAT [XGTACX_site7833]  6.16
7. TTTTAAGAATAAAATTGTACACATACATGTGTTCGC [XGTACX_site438]  6.17
8. AAAAAAAAAAAAGATACACACAAAAATGAATATATA [CACACA_site2099]  6.19
9. AGGCTCAAATCTAGGTGTACCATTATCGTTGTATCT [XGTACX_site4730]  6.2
10. GAACCATAAGGAACGACACACAAAGATAAATAAATA [CACACA_site3472]  6.2
11. ATTATGTATATAAATTAACACACATATGTGGTTAAT [CACACA_site9028]  6.37
12. TAAATAATTAAAATATGTACTGAAATGTAATTATTT [XGTACX_site5894]  6.38
13. TCTTTTTTTTTACATACTTTTTTCCTTTTTTTTTTA [CACACA_negctrl_site1429]  6.39
14. TTATTTATATATTCATGTACATAACATTTCATTCGA [XGTACX_site4388]  6.4
15. TGTATCATAAAAATAACACACGTATTTTTTTTTATT [CACACA_site1050]  6.42
16. ATTAATATTCTATATGCATGTGAACCATGGTATATA [TGCATGCA_site430]  6.44
17. ATTTTTTCTTATAATGCATGTAGAAAACCGTACAGC [TGCATGCA_site57]  6.46
18. AAAAATAACGTAAATTGTACATGTAAAATTTTCTAT [XGTACX_site7158]  6.46
19. ATATTATTTATAAGTTGTACGGTATAATATAATATA [XGTACX_site5371]  6.48
20. ATAAATGGAAACAAAAGTACTAAAAAAAAAAAATAA [XGTACX_site1510]  6.52
21. AATAATATATATATATATATAATAAAATATAAATAG [CACACA_negctrl_site1515]  6.52
22. TTATATTTATTTATTTGTACATATTTTTTTTTATAT [XGTACX_site1669]  6.54
23. CAATATATTTGATTTACACACTTACAATGTATATAA [CACACA_site2994]  6.54
24. ACGGGTCAATATATGCGTACTTATTTAAATAATTAA [XGTACX_site1518]  6.56
25. ATATAAATTTTTTAGAGTACTAAAATAAAATAATAT [XGTACX_site2118]  6.61
26. GGGAATATATTCAATTGTACATTCTTATTTTATCCA [XGTACX_site8480]  6.65
27. TATATATGTATGTATTGTACAATTAAAAATATGTAT [XGTACX_site3990]  6.68
28. AAACAATCTAAAAGTAGTACAATAAAAATATATATA [XGTACX_site5607]  6.69
29. TGTGTATATATATAATGTACATAAAGATTTATATAT [XGTACX_site5835]  6.72
30. TATGTGTTTATTTGGTGTACATACTAATAAATATAC [XGTACX_site1682]  6.74
31. ATCAAGCACCAACACACACACACACCCCCACCCACA [CACACA_site370]  6.79
32. TTTCTTTTTAAATATATACACACCGTGGGTACATAT [CACACA_site9102]  6.81
33. AAACAGAAGACATATACACACATACAAAAAAGTGCA [CACACA_site4699]  6.82
34. AAAATTTTTTACTTTACACACATTTTGTATATTTTG [CACACA_site1730]  6.9
35. TGTTTTATACTAAATGAACACACACCCATATATATA [CACACA_site7912]  6.94
36. AAAAAATATATATTAACACACACACTAATAAAAAAA [CACACA_site8366]  7.03
37. CCAACATGCCCACGCACACACAAAAAAAGCATGCAT [CACACA_site4217]  7.08
38. TCATATCTTTTGAGCACACATATATATATATAAAGG [CACACA_site3338]  7.3
39. AAATTTGCTTTTATTTTACACACTTGCTCCTGTTGT [CACACA_site8276]  7.35
40. AATAATATAGATTGTACACACAAAATGGGAAAAAAA [CACACA_site1886]  7.48
41. TATAAACACCCATATAAACACACATACATACATACA [CACACA_site8791]  7.58
42. TATTTAATGCAAAAACGTACATAAATAACATTCACA [XGTACX_site5356]  8.39
43. TATATATATATTAGTGGTACAAGATTTTTTTCTTTT [XGTACX_site4619]  8.45
44. ACGCACGAAATAAATACATGCATATTGTAAAAATTA [TGCATGCA_site310]  8.99
45. ATATATATATATAACTGTACTTATATATACATTTTA [XGTACX_site8605]  9.25
46. AAAAAAAAATTATTCACACATATATATATATATATA [CACACA_site5579]  9.3
47. ATATATATATATATATGTACATATATATATAATTTT [XGTACX_site4146]  9.31
48. TAAATAAATAAAAAAACACACATATATATATATATA [CACACA_site4029]  9.32
49. AAAAATAAAAAAAGCACACACATATATATATATATA [CACACA_site1885]  9.32
50. ATATAATAAAATGACACACGCATATATATATATATA [CACACA_site2789]  9.45
51. ATATATATATATATATGTACTTATTTATCGTATTAT [XGTACX_site3520]  9.59
52. TTTTATCACATTATTGCACACACATAAAGAAAAAAA [CACACA_site8922]  9.63
53. ATAAATACAGATAACACACACATATATATATATATA [CACACA_site5431]  9.66
54. TTCTCATTCAAATTAGTGCATTTTTGTTATTACATT  9.79
55. CCTAAATTATATTATGCACACTTAAAAATATATTTA [CACACA_site5861]  9.95
56. ATAATATTTTAATGCACACACACAAAAAAAAAAAAA [CACACA_site2891]  9.96
57. TATTTACTTATATGCACACATAAATGTGAATTATGG [CACACA_site3777]  10.4

From the supplement of paper PMC11417369
